The text below walks through data of FireProtDB (doi:10.1021/bi0014406).

One may read the Tm as the temperature at which the thermal transition is half complete.

For the data set the following is noted: Homo sapiens, pH 7.4, CD, Sodium phosphate 10 mM, reversible: yes.

As to “Apolipoprotein A-I wild type (chain not printed)”, where the note is “25 °C, GdnHCl”, the denaturant m value was determined as 2.1 kcal/mol/M, the “denaturant midpoint (higher = more stable)” value worked out at 1.1 M and the unfolding free energy was 2.3 kcal/mol. In addition, the Tm (Thermal) turned out to be 58 °C.
